Earlier results on 33 sequences are cited in PMC11006913.

This is one part of the list.

Holding throughout (conditions): PBM; conditions not shown; double strand, one strand shown; scale: upbm affinity estimate (log intensity, higher = more binding, comparable within an allelic series)
For series [1], the target named is HOXD13 I297V (Homo sapiens) (UniProt P35453).
In series [2] the target is HOXD13 I322L (Homo sapiens) (UniProt P35453).
For series [3], the target named is HOXD13 N298S (Homo sapiens) (UniProt P35453).
The target in series [4] is HOXD13 Q325K (Homo sapiens) (UniProt P35453).
The target in series [5] is HOXD13 Q325R (Homo sapiens) (UniProt P35453).
For series [6], the target named is HOXD13 R306W (Homo sapiens) (UniProt P35453).
Series [7] deals with HOXD13 S316C (Homo sapiens) (UniProt P35453).
Series [8] deals with T1, HESX1 N125S (Homo sapiens) (UniProt Q9UBX0).
T1 sequence: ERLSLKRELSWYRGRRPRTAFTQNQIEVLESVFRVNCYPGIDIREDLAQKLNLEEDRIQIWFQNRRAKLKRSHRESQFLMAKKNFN

As to AGGCCCAC [8-mer AGGCCCAC], the binding signal is 9.47 in series [1]; 9.5 in series [2]; 9.46 in series [3]; 9.27 in series [4]; 9.45 in series [5]; 9.35 in series [6]. In series [7], the binding signal is 9.44.
Regarding CCGGCAGC [8-mer CCGGCAGC], the binding signal in series [1] was 9.51; in series [2], 9.33; in series [3] it was 9.38; in series [4] it was 9.72; in series [5], 9.35; in series [6], 9.45. Also, the binding signal in series [7] is 9.53.
ACTCGTAA [8-mer ACTCGTAA]: the binding signal is 12.1 in series [1]; 12.3 in series [2]; 12.4 in series [3]; 10.4 in series [4]; 11.1 in series [5]; 11.1 in series [6]. For the same sequence, the binding signal in series [7] is 12.
On to TTATTAAA [8-mer TTATTAAA], for which the binding signal in series [1] is 12.5; in series [2] it was 11.8; in series [3], 12.8; in series [4], 11.9; in series [5], 12.2; in series [6] it was 12. The binding signal in series [7] was 12.4.
Regarding CCCGGAGG [8-mer CCCGGAGG], the binding signal in series [1] is 9.29; in series [2] it was 9.2; in series [3], 9.22; in series [4] it was 9.46; in series [5], 9.24; in series [6], 9.27. Moreover, the binding signal in series [7] was 9.25.
As for CCGGCGCG [8-mer CCGGCGCG], the binding signal in series [1] was 9.31; in series [2], 9.37; in series [3] it was 9.23; in series [4], 9.27; in series [5], 9.31; in series [6], 9.37. Further, the binding signal in series [7] was 9.39.
For the sequence CTCGGGGC [8-mer CTCGGGGC], the binding signal is 9.38 in series [1]; 9.33 in series [2]; 9.34 in series [3]; 9.35 in series [4]; 9.3 in series [5]; 9.33 in series [6]. The binding signal in series [7] was 9.4.
In the case of GGGATCCC [8-mer GGGATCCC], the binding signal in series [1] is 9.45; in series [2] it was 9.54; in series [3], 9.25; in series [4], 9.78; in series [5], 9.42; in series [6], 9.56. Also, the binding signal in series [7] is 9.42.
As to GTCATTAA [8-mer GTCATTAA], the binding signal in series [1] was 12.2; in series [2], 11.5; in series [3], 12.4; in series [4], 11.1; in series [5], 11.4; in series [6] it was 11.2. Moreover, in series [7], the binding signal is 12.1.
Regarding GGAGGCAC [8-mer GGAGGCAC], the binding signal is 9.49 in series [1]; 9.38 in series [2]; 9.49 in series [3]; 9.31 in series [4]; 9.49 in series [5]; 9.52 in series [6]. Also, in series [7], the binding signal was 9.58.
In the case of AGGGCTGG [8-mer AGGGCTGG], the binding signal in series [1] was 9.6; in series [2] it was 9.54; in series [3], 9.42; in series [4], 9.58; in series [5], 9.52; in series [6], 9.48. The binding signal in series [7] is 9.51.
As to ATTGTAAA [8-mer ATTGTAAA], the binding signal in series [1] and in series [2] was 12.3 throughout.
Take GCTATTAA [8-mer GCTATTAA]: the binding signal in series [8] was 9.67; in series [1], 12.2; in series [2] it was 11.5; in series [3], 12.4; in series [4], 11.3; in series [5], 11.5. Also, the binding signal in series [6] was 11.4; in series [7] it was 12.
As to GCAATAAA [8-mer GCAATAAA], the binding signal was 12.9 in series [1]; 11.4 in series [2]; 13.1 in series [3]; 11 in series [4]; 12 in series [5]; 12.1 in series [6]. Moreover, in series [7], the binding signal was 12.8.
Consider GTTTAATA [8-mer GTTTAATA], for which the binding signal in series [1] is 12.2; in series [2] it was 11.7; in series [3], 12.5; in series [4] it was 12.1; in series [5], 12.2; in series [6] it was 11.7. Besides, the binding signal in series [7] is 12.1.
For the sequence CCTATAAA [8-mer CCTATAAA], the binding signal in series [1] is 13; in series [2], 11.8; in series [3], 13.2; in series [4], 11.9; in series [5], 12; in series [6], 12.5. For the same sequence, the binding signal in series [7] is 12.9.
Take CGCCCTTC [8-mer CGCCCTTC]: the binding signal was 9.56 in series [1]; 9.53 in series [2]; 9.47 in series [3]; 9.55 in series [4]; 9.56 in series [5]; 9.46 in series [6]. In addition, in series [7], the binding signal is 9.46.
In the case of ATTACTAA [8-mer ATTACTAA], the binding signal in series [1] is 11.1; in series [2], 10.8; in series [3], 11.3; in series [4], 11; in series [5], 11.1; in series [6] it was 10.6. Moreover, the binding signal in series [7] was 10.9.
Consider GGCCCGGA [8-mer GGCCCGGA], for which the binding signal in series [1] was 9.43; in series [2], 9.43; in series [3] it was 9.41; in series [4], 9.63; in series [5] it was 9.54; in series [6], 9.44. In series [7], the binding signal was 9.47.
For CTCGTTAA [8-mer CTCGTTAA], the binding signal was 12.7 in series [1]; 12.7 in series [2]; 12.8 in series [3]; 10.3 in series [4]; 11.3 in series [5]; 11.5 in series [6]. Further, the binding signal in series [7] is 12.4.
Regarding ATCATAAA [8-mer ATCATAAA], the binding signal in series [1] is 12.4; in series [2], 11.4; in series [3], 12.7; in series [4], 11; in series [5], 11.7; in series [6], 11.6. In addition, in series [7], the binding signal is 12.4.
Regarding CCTGCGAG [8-mer CCTGCGAG], the binding signal in series [1] was 9.46; in series [2], 9.37; in series [3] it was 9.4; in series [4] it was 9.59; in series [5], 9.47; in series [6], 9.42. The binding signal in series [7] was 9.54.
For the sequence GGCCCCAC [8-mer GGCCCCAC], the binding signal in series [1] was 9.73; in series [2] it was 9.61; in series [3], 9.71; in series [4], 9.46; in series [5], 9.52; in series [6] it was 9.55. The binding signal in series [7] was 9.72.
In the case of CCTCCGGA [8-mer CCTCCGGA], the binding signal in series [1] was 9.53; in series [2], 9.34; in series [3] it was 9.44; in series [4] it was 9.52; in series [5], 9.29; in series [6], 9.44. The binding signal in series [7] is 9.41.
Consider CGCGGGAG [8-mer CGCGGGAG], for which the binding signal in series [1] is 9.37; in series [2], 9.38; in series [3], 9.35; in series [4], 9.62; in series [5], 9.43; in series [6], 9.39. Besides, the binding signal in series [7] is 9.29.
Take CTAGTAAA [8-mer CTAGTAAA]: the binding signal was 12.4 in series [1]; 12.3 in series [2]; 12.7 in series [3]; 10.6 in series [4]; 11.5 in series [5]; 11.4 in series [6]. Also, the binding signal in series [7] was 12.4.
Regarding CTCGTAAC [8-mer CTCGTAAC], the binding signal is 12.3 in series [1]; 12.5 in series [2]; 12.5 in series [3]; 10.3 in series [4]; 10.9 in series [5]; 10.9 in series [6]. For the same sequence, in series [7], the binding signal was 12.
With CCCACGGC [8-mer CCCACGGC], the binding signal in series [1] was 9.11; in series [2], 9.21; in series [3], 9.09; in series [4], 9.27; in series [5], 9.02; in series [6] it was 9.26. The binding signal in series [7] is 9.2.
For the sequence CTGTAAAA [8-mer CTGTAAAA], the binding signal in series [1] was 12.3; in series [2] it was 12.2; in series [3] it was 12.4; in series [4], 10.3; in series [5] it was 10.6; in series [6], 11.4. The binding signal in series [7] was 12.
In the case of TCCATAAA [8-mer TCCATAAA], the binding signal is 12.3 in series [1]; 11.1 in series [2]; 12.6 in series [3]; 10.3 in series [4]; 10.8 in series [5]; 11.7 in series [6]. For the same sequence, the binding signal in series [7] was 12.2.
For TTAATAAA [8-mer TTAATAAA], the binding signal in series [1] is 12.2; in series [2], 11.3; in series [3], 12.5; in series [4] it was 11.3; in series [5], 11.9; in series [6] it was 12. The binding signal in series [7] is 12.3.
Turning to GTCATAAA [8-mer GTCATAAA], the binding signal in series [1] was 12.5; in series [2] it was 11.5; in series [3], 12.9; in series [4] it was 11.3; in series [5], 11.7; in series [6], 11.7. For the same sequence, the binding signal in series [7] is 12.5.
For TGATGTAA [8-mer TGATGTAA], the binding signal is 11.1 in series [1]; 10.8 in series [2]; 11.1 in series [3]; 10.6 in series [4]; 10.7 in series [5]; 10.6 in series [6]. In series [7], the binding signal was 10.8.
